The structures appear in SMILES notation. Screen size: about 310,000 compounds; about 2,200 (0.71%) showed an effect of 50% or more. The effect is printed as a negative number. The list shows a part of the results.

human ether-à-go-go-related gene (hERG) potassium channel, sequence (Q12809 whole entry, looked up): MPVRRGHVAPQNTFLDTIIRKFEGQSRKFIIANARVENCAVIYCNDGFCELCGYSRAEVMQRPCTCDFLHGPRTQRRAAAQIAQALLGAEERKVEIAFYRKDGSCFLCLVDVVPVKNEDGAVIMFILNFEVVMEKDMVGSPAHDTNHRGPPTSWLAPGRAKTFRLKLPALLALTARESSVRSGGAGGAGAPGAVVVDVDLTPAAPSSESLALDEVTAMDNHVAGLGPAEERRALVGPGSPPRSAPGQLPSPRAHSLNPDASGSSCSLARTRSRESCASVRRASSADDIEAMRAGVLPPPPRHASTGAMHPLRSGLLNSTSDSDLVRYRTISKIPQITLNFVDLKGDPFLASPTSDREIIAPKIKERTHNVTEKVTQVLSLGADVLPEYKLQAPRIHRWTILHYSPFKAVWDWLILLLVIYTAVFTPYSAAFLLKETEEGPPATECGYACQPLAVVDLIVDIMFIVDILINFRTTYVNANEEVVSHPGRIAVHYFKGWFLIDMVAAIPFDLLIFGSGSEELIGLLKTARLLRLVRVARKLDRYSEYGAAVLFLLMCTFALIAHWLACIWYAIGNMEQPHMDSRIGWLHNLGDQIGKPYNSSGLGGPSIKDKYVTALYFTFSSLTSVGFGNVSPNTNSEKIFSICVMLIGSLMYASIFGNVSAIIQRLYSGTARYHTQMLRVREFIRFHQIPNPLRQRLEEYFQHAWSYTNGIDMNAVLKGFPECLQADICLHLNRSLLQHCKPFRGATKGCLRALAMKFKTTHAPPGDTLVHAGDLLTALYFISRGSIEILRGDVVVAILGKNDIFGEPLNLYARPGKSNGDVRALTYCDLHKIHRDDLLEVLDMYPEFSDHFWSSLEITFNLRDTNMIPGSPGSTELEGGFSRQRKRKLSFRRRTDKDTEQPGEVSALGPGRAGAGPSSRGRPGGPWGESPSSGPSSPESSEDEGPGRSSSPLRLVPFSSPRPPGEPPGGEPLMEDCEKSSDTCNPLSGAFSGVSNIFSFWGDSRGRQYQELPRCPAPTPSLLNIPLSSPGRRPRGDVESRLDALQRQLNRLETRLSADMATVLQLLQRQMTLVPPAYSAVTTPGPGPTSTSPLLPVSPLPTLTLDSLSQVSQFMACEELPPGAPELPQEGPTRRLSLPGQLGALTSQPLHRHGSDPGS

This test has as its target human ether-à-go-go-related gene (hERG) potassium channel (human, UniProt Q12809). Briefly: primary screen, population patch clamp on CHO cells stably expressing hERG.
Consider `CC(/C=C/C=C/c1ccccc1)=N/NC(=O)C(O)c1ccccc1` (centres unmarked), for which the “hERG current change (%, negative = inhibition) at 1uM” value is 12.5%. Turning to `COc1ncnc2c1sc1nc(-c3ccccc3)c3c(c12)CCCC3`, the “hERG current change (%, negative = inhibition) at 1uM” value is listed as 12.3%. For the compound `CCn1cc(C=C2C(=O)NC(=O)NC2=O)c2ccccc21`, the “hERG current change (%, negative = inhibition) at 1uM” value is on record as 13.8%. As for `COC(/C=C/Nc1ccc(OC)cc1)=C(C#N)C#N`, the “hERG current change (%, negative = inhibition) at 1uM” value is given as -20.9%. In the case of `COc1ccc(-n2cnnc2SCC(=O)Nc2cccc([N+](=O)[O-])c2)cc1`, the “hERG current change (%, negative = inhibition) at 1uM” value worked out at 8.86%.

In the case of `CCCCOC(=O)CSC1=C(C#N)C(c2ccccc2OC)C(C#N)C(=O)N1` (centres unmarked), the “hERG current change (%, negative = inhibition) at 1uM” value amounted to 15.5%. For the compound `CNc1nc(C)c(C(C)=O)cc1C#N`, the “hERG current change (%, negative = inhibition) at 1uM” value is reported as 13%. In the case of `c1ccc2oc(SCc3nc4ccccc4s3)nc2c1`, the “hERG current change (%, negative = inhibition) at 1uM” value turned out to be 6.91%. In the case of `CCOC(=O)c1sc(NC(=O)CN2C(=O)NC3(CCCCCCC3)C2=O)c(C(=O)OCC)c1C`, the “hERG current change (%, negative = inhibition) at 1uM” value came to 8.08%. As to `COc1ccc(CNc2nc3ccccc3n2Cc2ccccc2)cc1OC`, the “hERG current change (%, negative = inhibition) at 1uM” value was -10.5%. As to `C/C(=N\NC(=O)CNc1cccc2ccccc12)c1ccc(Br)s1`, the “hERG current change (%, negative = inhibition) at 1uM” value is reported as 4.48%. Regarding `CC(C)Cc1nnc(NC(=O)c2ccc3c(=O)n4c(nc3c2)CCC4)s1`, the “hERG current change (%, negative = inhibition) at 1uM” value was determined as 4.36%. As for `Cc1ccccc1NC(=O)CSc1nc(Nc2ccccc2)nc(N2CCOCC2)n1`, the “hERG current change (%, negative = inhibition) at 1uM” value was 2.77%. The value for `CCOC(=O)Cc1csc(NC(=O)Nc2ccc(C)cc2)n1` was 5.98%; that for `CCOc1ccc(CCNC(=O)c2ccc(Cl)c(S(=O)(=O)N3CCOCC3)c2)cc1OCC` was -2.82%; that for `Cc1cc(OCCCC(=O)NCCN2C(=O)S/C(=C\c3cccnc3)C2=O)ccc1Cl` was 3.8%. With `CCOc1ccc2nc(N3CCCN(C(=O)Nc4ccccc4C)CC3)c(C#N)cc2c1`, the “hERG current change (%, negative = inhibition) at 1uM” value was 10.5%. The value for `O=c1c2ccccc2nc(COc2ccccc2)n1/N=C/c1ccco1` was 5.89%. For `c1ccc(CSc2nnc3ccc(-c4ccco4)nn23)nc1`, the “hERG current change (%, negative = inhibition) at 1uM” value came out at 11.2%. The value for `CCN(Cc1ccccc1)Cc1ccc(OCc2ccccc2)c(OC)c1` was 5.68%; that for `C(=C\c1nc(-c2cccnc2)no1)/c1ccccc1` was 10.5%; that for `C1COCCO1.CCOc1ccccc1N/C(=N/c1nc(C)cc(C)n1)NC(=O)Nc1ccc(Cl)c(Cl)c1` was 8.2%.

With `CCOc1ccccc1CN1CCN(S(C)(=O)=O)CC1.O=C(O)C(=O)O`, the “hERG current change (%, negative = inhibition) at 1uM” value is 1.14%.

As to `O=C(O)C1CCC(=O)N1Cc1ccccc1Cl` (centres unmarked), the “hERG current change (%, negative = inhibition) at 1uM” value turned out to be 2.96%. Regarding `COc1ccc(-c2nc(NC(=O)c3cc(C(C)(C)C)nn3C)sc2C)cc1`, the “hERG current change (%, negative = inhibition) at 1uM” value is given as 4.9%. Regarding `O=C(NCC1COc2ccccc2O1)C1(c2ccccc2)CCCC1` (centres unmarked), the “hERG current change (%, negative = inhibition) at 1uM” value worked out at 8.38%. The value for `O=C(NC1CCCCCC1)C1c2ccccc2C(=O)N1CCCN1CCOCC1` (centres unmarked) was 9.18%; that for `CCOC(=O)CSc1nc(Cc2ccccc2)nc2ccccc12` was 3.08%. For the compound `COc1ccc(-c2csc(C3=C(O)CN(C(C)C)C3=N)n2)cc1OC`, the “hERG current change (%, negative = inhibition) at 1uM” value was determined as 5%. Take `COc1ccc(N2CCN(C(=O)c3ccc(CSc4ccccc4)cc3)CC2)cc1`: the “hERG current change (%, negative = inhibition) at 1uM” value is 17.1%. As for `CC[C@H](C)[C@H](NC(=O)OCc1ccccc1)C(=O)OCC(=O)Nc1ccc(N2CCOCC2)cc1`, the “hERG current change (%, negative = inhibition) at 1uM” value is -1.03%.

For `CN(C)CCCNC(=O)/C(=C\c1ccc(-c2ccc(Br)cc2)o1)NC(=O)c1ccccc1`, the “hERG current change (%, negative = inhibition) at 1uM” value is given as -82%. Consider `Cc1cc(=O)[nH]c(-c2ccc(Cl)cc2)n1`, for which the “hERG current change (%, negative = inhibition) at 1uM” value is 10.6%. The value for `CCOC(=O)c1oc2nc(C)c3c(c2c1N)CC(C)(C)OC3` was 13.5%; that for `CC(=O)CC(C)(C)Nc1nc2ccc([N+](=O)[O-])cc2o1` was 6.25%; that for `CCOC(=O)N1CCN(C(=O)CSc2ccc3nnc(-c4ccccn4)n3n2)CC1` was 2.22%. The value for `Cc1ccc(S(=O)(=O)NNC2CC(=O)N(c3ccc(Br)cc3)C2=O)cc1` (centres unmarked) was 21.2%; that for `CC(=O)N/C(=C\c1ccccc1)C(=O)OCc1cccc(S(=O)(=O)N(C)C)c1` was 3.54%; that for `CCN1CCN(c2ccc(S(=O)(=O)N3CCOCC3)cc2NC(=O)c2ccc(Cl)s2)CC1` was -2.61%. Regarding `CCOc1ccccc1NC(=O)c1cccc2c1C(=O)N(C1CCCCC1)C2`, the “hERG current change (%, negative = inhibition) at 1uM” value stood at 10.2%.

On to `CN(C)c1nc(SCc2ccccc2)nc(N2CCOCC2)n1`, for which the “hERG current change (%, negative = inhibition) at 1uM” value was determined as 16.9%. For `O=C(Nc1ccc(-n2cccn2)cc1)C1CCCCN1Cc1cccc2c1OCO2` (centres unmarked), the “hERG current change (%, negative = inhibition) at 1uM” value is 3.95%.

As to `CCC(C)[C@H](NC(=O)NCCCn1ccnc1)C(=O)OC` (some centres unmarked), the “hERG current change (%, negative = inhibition) at 1uM” value is reported as 3.54%. Take `CCCS(=O)(=O)N1CCN(Cc2ccc(OCc3ccccc3)c(OC)c2)CC1.O=C(O)C(=O)O`: the “hERG current change (%, negative = inhibition) at 1uM” value is -1.2%.

As for `CCN1C(c2ccc(F)cc2)=CS/C1=C(\C#N)c1nnc2n1-c1ccccc1SC2`, the “hERG current change (%, negative = inhibition) at 1uM” value is -1.69%. Take `O=C(COC(=O)CNC(=O)C1CCCCC1)Nc1ccc(Cl)cn1`: the “hERG current change (%, negative = inhibition) at 1uM” value is given as 2.1%. As to `O=C1NCCN1C(=O)N(c1ccccc1)c1ccccc1`, the “hERG current change (%, negative = inhibition) at 1uM” value stood at 3.25%. The value for `COc1ccc(C)cc1N(CC(=O)N/N=C/c1ccc2c(c1)OCO2)S(C)(=O)=O` was 12.8%; that for `O=C(CCC(=O)c1ccc(F)cc1)NC1CCCN(Cc2ccccc2F)C1` (centres unmarked) was 4.75%.

With `CC(=O)Oc1ccc(N(C(C)=O)S(=O)(=O)c2ccc3ccccc3c2)cc1`, the “hERG current change (%, negative = inhibition) at 1uM” value turned out to be 15.3%.

With `CCOC(=O)CCCCC(=O)c1[nH]c(=O)[nH]c1C[n+]1ccc(C)cc1.[Cl-]`, the “hERG current change (%, negative = inhibition) at 1uM” value was 9.46%.

`CCc1nnc(NC(=O)Nc2ccc(Cl)cc2)s1`: the “hERG current change (%, negative = inhibition) at 1uM” value worked out at 13.9%.

In the case of `Cc1ccc(Cn2ccsc2=NC(=O)COC(=O)C(C)C)cc1`, the “hERG current change (%, negative = inhibition) at 1uM” value came out at 13.3%. The value for `CSC(=S)N/N=C/c1ccc(Br)cc1` was 7.51%; that for `CC(C)(C)c1csc(NC(=O)c2ccc(Cl)s2)n1` was 9.99%. On to `COc1ccc(NS(=O)(=O)c2cc(NC(=O)c3sccc3C)ccc2N2CCOCC2)cc1`, for which the “hERG current change (%, negative = inhibition) at 1uM” value came out at 16.5%. As to `CCCCOc1ccc(C(=O)N/C(=C/C=C/c2ccccc2)C(=O)NCCCO)cc1`, the “hERG current change (%, negative = inhibition) at 1uM” value is -1.67%. Regarding `O=Cc1ccc(OCc2ccccn2)cc1`, the “hERG current change (%, negative = inhibition) at 1uM” value is 11.8%.

For `Cc1ccccc1-n1c(O)c(/C=N/NC(=O)c2ccncc2)c(=O)[nH]c1=O`, the “hERG current change (%, negative = inhibition) at 1uM” value was 11.9%. On to `COc1ccc(OC)c(C2C(C(=O)O)c3ccccc3C(=O)N2C)c1` (centres unmarked), for which the “hERG current change (%, negative = inhibition) at 1uM” value is recorded as 9.4%.

Consider `O=C(O)C1C2C=CC(C3CC23)C1C(=O)O` (centres unmarked), for which the “hERG current change (%, negative = inhibition) at 1uM” value was found to be 15.9%. Take `Cc1cc(N=Nc2ccccc2C(=O)O)c(C)c(C)c1O`: the “hERG current change (%, negative = inhibition) at 1uM” value is 22%. The value for `CN(C)S(=O)(=O)c1ccc(NC=C(C#N)C#N)cc1` was 7.01%; that for `Cc1ccc2c(c1)N(C(=O)CCC(=O)N1CCN(c3ccccc3)CC1)CCO2` was -6.69%. For `O=C(c1cccc(C(F)(F)F)c1)c1c[nH]c(C(=O)NCC2CCCO2)c1` (centres unmarked), the “hERG current change (%, negative = inhibition) at 1uM” value was determined as 4.81%. Turning to `O=C(Nc1ccc2nn(-c3ccccc3)nc2c1)c1cccs1`, the “hERG current change (%, negative = inhibition) at 1uM” value was 12.3%.

With `CCOc1ccccc1/C=N\Nc1cnn(Cc2ccccc2)c(=O)c1Cl`, the “hERG current change (%, negative = inhibition) at 1uM” value is 9.95%. As to `Cc1csc(NC(=O)c2cccs2)n1`, the “hERG current change (%, negative = inhibition) at 1uM” value came to 10.4%. Take `Cn1cc(/C=C/c2cc[n+](C)cc2)c2cc(Cl)ccc21.[I-]`: the “hERG current change (%, negative = inhibition) at 1uM” value is given as -14.2%. `Fc1ccc(-c2nnn(Cc3ccccc3Cl)n2)cc1`: the “hERG current change (%, negative = inhibition) at 1uM” value is listed as 4.61%.

For the compound `O=C(OCC(=O)N1CCN(C(=O)c2ccco2)CC1)c1ccccc1C(=O)c1ccc(Cl)cc1`, the “hERG current change (%, negative = inhibition) at 1uM” value is recorded as -15.4%. The value for `Cc1ccc(NC(=O)C(=O)NCc2ccco2)c(C)c1` was 20.4%; that for `Cc1nc2ccccc2n1S(=O)(=O)N(C)C` was 14.4%. Consider `CCn1c(/C(C#N)=C(\O)CCc2ccccc2)nc2ccccc21`, for which the “hERG current change (%, negative = inhibition) at 1uM” value is -0.0603%. As for `CCOC(=O)C1=C(CSc2nc3c(cc2C#N)CN(C)CC3)OC(N)=C(C#N)C1c1ccc(Cl)cc1` (centres unmarked), the “hERG current change (%, negative = inhibition) at 1uM” value is listed as 8.12%. The value for `Cc1ccc(Cl)c(OCCCN(C)Cc2ccccc2)c1.O=C(O)C(=O)O` was 11.9%; that for `COCCN(C(=O)CNC(=O)c1ccco1)C(C(=O)NC1CCCC1)c1ccccc1` (centres unmarked) was 0.176%. In the case of `O=C(COc1ccc(S(=O)(=O)NC2CCCCC2)cc1)Nc1ccc2c(c1)OCCO2`, the “hERG current change (%, negative = inhibition) at 1uM” value was determined as 1.12%. Consider `CC1CCCCC1N=C1NC(C)(C)CS1` (centres unmarked), for which the “hERG current change (%, negative = inhibition) at 1uM” value is 16%. In the case of `Cn1cc(P(=S)(N2CCOCC2)N2CCOCC2)cc1P(=O)(N1CCOCC1)N1CCOCC1`, the “hERG current change (%, negative = inhibition) at 1uM” value stood at 3.24%. With `CNC(=O)c1c(NC(=O)c2ccc(S(=O)(=O)N3CC(C)OC(C)C3)cc2)sc2c1CCN(C(C)C)C2` (centres unmarked), the “hERG current change (%, negative = inhibition) at 1uM” value was determined as 5.05%. The value for `CCCCC1(C)OC(=O)C(=Cc2ccc(N(C)C)cc2)C(=O)O1` (centres unmarked) was 5.59%; that for `COc1ccc(C(C)(C)C)cc1NC(=O)c1ccc2ncsc2c1` was 9.11%. The value for `O=C(c1ccccc1)c1ccc(Cn2cc(CCCO)nn2)cc1` was 3.41%; that for `CCCCCOC(=O)Nc1nnc(CCC)s1` was -1.67%. As to `COCCCNC(=O)CNC(=O)c1nn(-c2ccc(OC)c(Cl)c2)c(=O)c2ccccc12`, the “hERG current change (%, negative = inhibition) at 1uM” value is reported as 11.4%.

On to `C/C(=N\Nc1ccccc1C)c1cccnc1.Cl`, for which the “hERG current change (%, negative = inhibition) at 1uM” value is listed as 10%. As to `O=c1/c(=C/c2ccco2)sc2n1CN(c1ccccc1)CN=2`, the “hERG current change (%, negative = inhibition) at 1uM” value is reported as 3.87%. Take `CCCCNC(=O)COn1nnc2ccc(S(=O)(=O)N3CCOCC3)cc21`: the “hERG current change (%, negative = inhibition) at 1uM” value was -1.01%.

The values are drawn from paper PMC4336329 (PLoS ONE, 2015).
